Reference: paper PMC9574860, “Chemical Toolkit for PARK7: Potent, Selective, and High-Throughput” (Journal of Medicinal Chemistry, 2022)
The whole screen tested about 7,900 compounds, of which about 400 (5.1%) showed an effect of 50% or more. The list shows a part of the results.

biological target: Parkinson's disease protein 7 (PARK7/DJ1) (human, UniProt Q99497); test: primary screen, percent inhibition; read as competition with a fluorescent probe by fluorescence polarization; higher = more effect of the substance; settings: 100 µM
Sequence (Q99497 whole entry, looked up, the tested form may be a part): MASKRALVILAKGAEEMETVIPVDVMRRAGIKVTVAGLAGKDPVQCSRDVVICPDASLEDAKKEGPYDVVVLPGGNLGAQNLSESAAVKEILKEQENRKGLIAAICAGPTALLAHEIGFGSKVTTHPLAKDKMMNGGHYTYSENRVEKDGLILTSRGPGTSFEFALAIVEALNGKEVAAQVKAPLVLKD
Method in brief: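 Covalent fragments at 100 μM final were incubated 2 h with 0.2 μM PARK7, then 20 nM probe JYQ-107 added for a further 2 h. Fluorescence polarization read at 480/520 nm; relative FP loss versus reference controls gave remaining enzyme activity.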

Structure (SMILES) | Inhibition % [%]
N#Cc1nc(NC2CCC(CN)C2)ccc1Cl (stereo not drawn) | 15.8
Fc1ccccc1COCC1CO1 (stereo not drawn) | 10.3
Cc1nc(C#N)c(NCc2ccc(F)cc2)o1 | 11.5
O=C(CN1C(=O)CCC1=O)NCc1ccc(F)cc1 | 5.18
CC1(C)OB(c2cnc(N)c(F)c2)OC1(C)C | 8.39
CCn1nc(C)c(C(=O)CCl)n1 | 13.1
CNC(=O)C1CCCN(C(=O)C=Cc2ccc(C)nc2)C1 (stereo not drawn) | 4.85
Cc1ccoc1C=C(C#N)C(=O)NCCc1ccccc1 | 0.974
Cn1c(=O)c2c(ncn2C2CCOC2=O)n(C)c1=O (stereo not drawn) | 2.57
C=CC(=O)N1CN(C)C(=O)C1C (stereo not drawn) | 8.81
O=C1CN(C(=O)C=Cc2c(F)cccc2F)CCN1 | 5.08
C=CC(=O)N1CCN(C)C(c2nccn2C)C1 (stereo not drawn) | 15.3
C=CC(=O)NCc1cnc(-c2ccccc2)s1 | 8.62
C=CS(=O)(=O)c1ccc(C#N)cc1 | 6.58
N#Cc1c(Cl)nc2ccccn12 | 5.75
C=C(C)Cn1c(-c2ncccn2)noc1=O | 14.8
C=CC(=O)NCc1cccc(N2CCOCC2)n1 | 6.85
OB(O)c1ccccc1OCc1ccc(F)cc1F | 2.02
OC1(CC2CO2)CCOCC1 (stereo not drawn) | 13.8
CCc1ccc2occ(C(=O)NC3CC(C)OC3=O)c2c1 (stereo not drawn) | 6.86
NCCCC1(C2OCCO2)CCCCCC1 | 9.05
COc1nc(C)ccc1C(=O)Nc1cccc(S(=O)(=O)F)c1 | 11.7
O=C(O)c1coc(C(=O)CCl)c1 | 96.1
C=CC(=O)N1CCn2c(C3CCCC3)nnc2C1C (stereo not drawn) | 7.27
O=C(c1ccc2c(=O)[nH]c(S)nc2c1)N1CCCOCC1 | 4.88
N#Cc1nc(N2CC(CF)C2)ccc1Cl | 3.54

Structure (SMILES) | Inhibition % [%]
C=CC(=O)N1CCc2ccc(C(F)(F)F)cc2C1 | 6.6
CS(=O)(=O)OCCC1CCCCO1 (stereo not drawn) | 10.5
C=CC(=O)NC(C)C1OCCc2sccc21 (stereo not drawn) | 5.8
CC1(C)OB(c2ccc(S(=O)(=O)NCCO)cc2)OC1(C)C | 4.41
C#CCN(C)c1cnc(C#N)cn1 | 15
O=C(CN1CCSC1=O)Nc1ccc2c(c1)OCO2 | 27.4
O=C(CCl)Nc1ccc(N2CCCC2)cc1 | 7.34
Cc1nc2c(n1C1CCN(C3CCOC3=O)C1)CCCC2 (stereo not drawn) | 9.93
Cn1cc(CN2C[C@@H](F)C[C@H]2CO)cc1C#N | 8.87
CC1Cc2ccccc2N1C(=O)CN1C(=O)CCC1=O (stereo not drawn) | -0.183
CC(C)c1cc(NC(=O)CCl)on1 | 20.6
Cc1c(C#N)c(NC(=O)CCl)n(-c2ccccc2)c1C | 4.52
C=CC(=O)NCC1CSc2ccccc21 (stereo not drawn) | 8.41
C=CC(=O)NC1COCC1C (stereo not drawn) | 12.7
Cc1ccc(CN(C)C(=O)Cn2cnc(C#N)n2)c(C)c1 | 3.86
CC1=C(C)CN(c2nccnc2C#N)CC1 | 26
O=C(CCl)c1ccccn1 | 102
Cn1nccc1C=CC(=O)N1CCCC1C(=O)O (stereo not drawn) | 4.09
O=S(=O)(CCCl)Cc1ccccc1 | 4.84
C=CC(=O)Nc1cc(C(=O)N2CCCCC2)[nH]n1 | 18.3
C=CC(=O)NCc1csc(-c2ccco2)n1 | 14
O=C1CCN1c1ccc(O)cc1 | 5.37
N#Cc1ccc(N[C@H]2C[C@@H]2C(F)F)cn1 | 16.5
CCN(CCC#N)S(=O)(=O)C=Cc1ccccc1Cl | 6.99
N#Cc1ccc2[nH]ccc2n1 | 18.7
C=CC(=O)N1CCN(C(=O)c2cccc(Cl)c2)CC1 | 4.01

Structure (SMILES) | Inhibition % [%]
Cc1ccc(NC(C)c2ccncc2)nc1C#N (stereo not drawn) | 10.9
CCc1cccc(CC)c1NC(=O)CCl | 4.13
CC(C)n1ccc(B2OC(C)(C)C(C)(C)O2)n1 | 3.12
C=CC(=O)NC1CC2CCCC(C1)N2C (stereo not drawn) | 31.9
O=C(CCl)Nc1ccccc1Sc1ccc(Cl)cc1 | 5.16
c1coc(COCC2CO2)c1 (stereo not drawn) | 3.97
Cc1cnn(CC2CN(C3CCOC3=O)CCO2)c1 (stereo not drawn) | 9.57
CC(C)(C)OC(=O)NC1(c2ccc(B3OC(C)(C)C(C)(C)O3)cc2)CC1 | 2.75
Fc1ccc(C2CO2)nc1 (stereo not drawn) | 4.53
CN(C)C(=O)c1cccc(NC(=O)CCl)c1 | 12.2
CNC(=O)Nc1ccc(S(=O)(=O)F)cc1 | 22.2
CCCn1c(C)cc(C=C(C#N)C(=O)N2CCCC2)c1C | 5.63
NC(=O)c1cc(-c2ccccc2)sc1NC(=O)CCl | 79.3
CC(C)C(C#N)N1CCN(C(=O)CCl)CC1 (stereo not drawn) | 5.7
Nc1ncnc2c1ncn2CCCCl | 2.3
O=C(NCc1ccn(C2CCCC2)n1)c1cccnc1S | 1.51
CS(=O)(=O)C(C#N)=Cc1ccc(Cl)cc1 | 11.4
O=C1CCc2cc(OCC3CO3)ccc2N1 (stereo not drawn) | 3.5
CSCc1cc(F)ccc1CNc1nccnc1C#N | 2.57
CC1CC(N2CCN(C)c3ccccc3C2)C(=O)O1 (stereo not drawn) | 0.987
O=C1OCCC1N1CCN(C(=O)c2cccs2)CC1 (stereo not drawn) | 9.27
CC1CC1C(=O)N1CCC(S(=O)(=O)F)C1 (stereo not drawn) | 36.5
C=CC(=O)N1CCCC(CCC)CC1 (stereo not drawn) | 8.71
O=S(=O)(F)CCSc1nnc2ccccn12 | 53.9
CCC(CSC)Nc1ccc(C#N)nc1 (stereo not drawn) | 11.4
CC1CCC(N(C(=O)CCl)C2CC2)CC1 (stereo not drawn) | 74.1

Structure (SMILES) | Inhibition % [%]
O=C(CCl)c1ccc(N2CCCC2=O)cc1 | 0.305
N#Cc1ncn(CCC(=O)Nc2cccc(F)c2)n1 | 1.26
O=C(O)CCN1C(=O)CSC1=O | 13
Cc1ccc(C=CC(=O)N2CCCC(C(=O)O)C2)s1 (stereo not drawn) | 3.55
C=CC(=O)N1CCC12CCC(CO)CC2 (stereo not drawn) | 4.92
Cl.Nc1ncc(CCCl)s1 | 8.22
Cl.NC1CCN(S(=O)(=O)C=Cc2cccc(Cl)c2)CC1 | 8.51
CC(C)(C)c1cccc(C#N)n1 | 4.76
O=C(CCl)Nc1ccccc1SC(F)F | 9.47
Cc1ccc2cccc(OC(=O)N3CCOCC3)c2n1 | 3.15
CCC1(C)NC(=O)N(NC(=O)CCl)C1=O (stereo not drawn) | 9.56
C=CC(=O)N1CCN(Cc2cc(F)ccc2OC)CC1 | -0.162
Cc1nc(C2CC2)nc(S)c1C(=O)O | 51.1
CCOc1ccc(C2CCCN2C(=O)n2ccnc2)cc1 (stereo not drawn) | 2.03
CC1(C)OB(c2ccc(NC(N)=O)cc2)OC1(C)C | 2.48
C=CC(=O)NC1CCCC(C(=O)N(C)C)C1 (stereo not drawn) | 2.64
C=CCNC(=O)C(C#N)=Cc1ccc(OC)cc1 | 7.92
CC1CN(C(=O)C=Cc2cnn(C)c2)CC(C)O1 (stereo not drawn) | 12.8
COc1ccc(C=C(C#N)S(C)(=O)=O)cc1 | 5.15
Cc1c(Cl)ccc(S(=O)(=O)n2cccn2)c1Cl | 2.22
C=CC(=O)N1CC(C)(C)C1c1ccccc1 (stereo not drawn) | 15.7
O=S(=O)(c1ccc(S)nc1)N1CCCCC1 | 7.61
C=CC(=O)NCCC1CSc2ccccc2O1 (stereo not drawn) | 1.16
O=S(=O)(Nc1ccccc1-c1ncco1)C1=CCCCC1 | 6.78
N#CC(=Cc1ccccc1)C(=O)O | 0.493
Cc1nc(N)ccc1B1OC(C)(C)C(C)(C)O1 | 3.19

Structure (SMILES) | Inhibition % [%]
C=CC(=O)NC1(C)CCC(F)(F)CC1 | 8.52
O=C(Oc1ccc2ccccc2c1)N1CCOCC1 | 9.43
CC(NC(=O)c1cccnc1S)C1CC1 (stereo not drawn) | 2.03
NC(=O)C12CC3CC(CC(Cl)(C3)C1)C2 | 4.19
O=C(N1CCOCC1)n1ccnc1 | 4.09
C=CC(=O)NCc1nc(C2CC2)n[nH]1 | 4.37
O=S(=O)(c1ccc(S)nc1)N1CCCCCC1 | 9.73
O=S1(=O)C=CC(N=C=S)C1 (stereo not drawn) | 9.53
O=C1OCCC1N1CCC2(CCCCC2)CC1 (stereo not drawn) | 10.3
N#Cc1c(NC(=O)CC2=CCCCC2)nc2n1CCS2 | 9.5
CC(C)(C)OC(=O)N1CCC2(CC1)CC2B1OC(C)(C)C(C)(C)O1 (stereo not drawn) | -1.51
Cc1nn(C)c(C)c1C1CCCN1C1CC(C)OC1=O (stereo not drawn) | 7.23
O=C(c1cccs1)N1CCCC(CS(=O)(=O)F)C1 (stereo not drawn) | 90.1
CS(=O)(=O)c1ccccc1NC(=O)CCl | 11.4
O=C(Oc1ccc(F)cc1)N1CCOCC1 | 29.6
COc1cc(C)c(Cl)cc1S(=O)(=O)n1ccnc1 | 0.774
COc1ncncc1B1OC(C)(C)C(C)(C)O1 | 1.19
COc1cccc(C#N)c1B1OC(C)(C)C(C)(C)O1 | 8.09
C=CC(=O)N1CCN(c2nnnn2-c2ccccc2)CC1 | 3.12
C=CC(=O)N1CCNC(=O)C1C (stereo not drawn) | 4.1
CC(Cl)c1nc(-c2nnc[nH]2)no1 (stereo not drawn) | 1.55
N#Cc1cccc(NC(=O)NCCCl)c1 | 5.87
